Test results: the supplement of paper PMC12217912
The other results are listed elsewhere or left out. Sequences were assembled here from the parent chain. Values near 0.05 are background.

B1: TEV protease; numbered along this chain (parent)
chain: MGESLFKGPRDYNPISSSICHLTNESDGHTTSLYGIGFGPFIITNKHLFRRNNGTLVVQSLHGVFKVKDTTTLQQHLVDGRDMIIIRMPKDFPPFPQKLKFREPQREERICLVTTNFQTKSMSSMVSDTSCTFPSGDGIFWKHWIQTKDGQCGSPLVSTRDGFIVGIHSASNFTNTNNYFTSVPKNFMELLTNQEAQQWVSGWRLNADSVLWGGHKVFMVKPEEPFQPVKEATQL

Variants of: B1
Assay: raw area under fraction-flipped curve 0-4 h after induction (AUC4h, not background-subtracted), DNA-recorder readout of cleavage of the substrate (dimensionless); higher = more cleavage of the substrate by the protease variant
Conditions: temperature: 34 °C; time window: 0-4 h after rhamnose induction
Protocol: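 In vivo DNA recorder in E. coli TOP10(DE3) ΔrhaA at 34 °C. Each TEVp single-site mutant (parent TEVp 0) is paired with a single-site variant of the 7-mer TEVs (canonical ENLYFQ|S). The substrate sits between flexible linkers in a Bxb1-sfGFP-TEVs-SsrA fusion, so cleavage stabilises Bxb1 and speeds flipping of a recombination array, read by NGS. The value is the raw area under the fraction-flipped curve over 0-4 h after rhamnose induction (AUC4h), with ≥20 reads per time point. It is not background-subtracted; inactive controls average about 0.047.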
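Further: Bxb1 expression induced with 0.2% (w/v) L-rhamnose at OD600 near 0.5, cultures sampled hourly, flipped fraction per protease–substrate barcode pair counted by paired-end Illumina sequencing.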

Q: What does the source list for MGESLFKGPRDYNPISSSICHLTNESDGHTTSLYGIGFGPFIITNKHLFWRNNGTLVVQSLHGVFKVKDTTTLQQHLVDGRDMIIIRMPKDFPPFPQKLKFREPQREERICLVTTNFQTKSMSSMVSDTSCTFPSGDGIFWKHWIQTKDGQCGSPLVSTRDGFIVGIHSASNFTNTNNYFTSVPKNFMELLTNQEAQQWVSGWRLNADSVLWGGHKVFMVKPEEPFQPVKEATQL [R50W]?
A: area with substrate ENLYAQS: 0.073; area with substrate ENLYDQS: 0.0438; area with substrate ENLYEQS: 0.0537; area with substrate ENLYGQS: 0.0641; area with substrate ENLYIQS: 0.132; area with substrate ENLYMQS: 0.0882; area with substrate ENLYPQS: 0.0648; area with substrate ENLYQQS: 0.0807; area with substrate ENLYSQS: 0.0788; area with substrate ENLYVQS: 0.198; area with substrate ENLYWQS: 0.108

Q: For MGESLFKGPRDYNPISSSICHLTNESDGHTTSLYGIGFGPFIITNKHLFYRNNGTLVVQSLHGVFKVKDTTTLQQHLVDGRDMIIIRMPKDFPPFPQKLKFREPQREERICLVTTNFQTKSMSSMVSDTSCTFPSGDGIFWKHWIQTKDGQCGSPLVSTRDGFIVGIHSASNFTNTNNYFTSVPKNFMELLTNQEAQQWVSGWRLNADSVLWGGHKVFMVKPEEPFQPVKEATQL [R50Y], which “area with substrate ENLYAQS” value is on record?
A: Its value is 0.079.

Q: What about the “area with substrate ENLYEQS” value of the same variant?
A: Its value is 0.0653.

Q: What about the “area with substrate ENLYHQS” value of the same variant?
A: The value was 0.0714.

Q: And the “area with substrate ENLYIQS” value?
A: Its value is 0.129.

Q: And the “area with substrate ENLYMQS” value?
A: Its value is 0.101.

Q: And the “area with substrate ENLYNQS” value?
A: The value was 0.0736.

Q: What about the “area with substrate ENLYPQS” value of the same variant?
A: The value was 0.0858.

Q: What about the “area with substrate ENLYQQS” value of the same variant?
A: The value was 0.0931.

Q: What about the “area with substrate ENLYRQS” value of the same variant?
A: Its value is 0.0598.

Q: And the “area with substrate ENLYSQS” value?
A: Its value is 0.07.

Q: And the “area with substrate ENLYWQS” value?
A: Its value is 0.116.

Q: With MGESLFKGPRDYNPISSSICHLTNESDGHTTSLYGIGFGPFIITNKHLFRRNNGTLEVQSLHGVFKVKDTTTLQQHLVDGRDMIIIRMPKDFPPFPQKLKFREPQREERICLVTTNFQTKSMSSMVSDTSCTFPSGDGIFWKHWIQTKDGQCGSPLVSTRDGFIVGIHSASNFTNTNNYFTSVPKNFMELLTNQEAQQWVSGWRLNADSVLWGGHKVFMVKPEEPFQPVKEATQL [V57E] as the variant, how does the “area with substrate ENLYAQS” value read?
A: Its value is 0.0692.

Q: What about the “area with substrate ENLYCQS” value of the same variant?
A: The value was 0.0716.

Q: And the “area with substrate ENLYEQS” value?
A: The value was 0.0664.

Q: What about the “area with substrate ENLYGQS” value of the same variant?
A: The value was 0.0536.

Q: What about the “area with substrate ENLYHQS” value of the same variant?
A: The value was 0.0426.

Q: And the “area with substrate ENLYIQS” value?
A: The value was 0.117.

Q: What about the “area with substrate ENLYNQS” value of the same variant?
A: Its value is 0.0882.

Q: What about the “area with substrate ENLYPQS” value of the same variant?
A: The value was 0.074.

Q: And the “area with substrate ENLYRQS” value?
A: Its value is 0.0615.

Q: And the “area with substrate ENLYSQS” value?
A: Its value is 0.0754.

Q: What about the “area with substrate ENLYTQS” value of the same variant?
A: Its value is 0.0422.

Q: What about the “area with substrate ENLYWQS” value of the same variant?
A: Its value is 0.0884.

Q: What about the “area with substrate ENLYYQS” value of the same variant?
A: The value was 0.0605.

Q: What does the source list for MGASLFKGPRDYNPISSSICHLTNESDGHTTSLYGIGFGPFIITNKHLFRRNNGTLVVQSLHGVFKVKDTTTLQQHLVDGRDMIIIRMPKDFPPFPQKLKFREPQREERICLVTTNFQTKSMSSMVSDTSCTFPSGDGIFWKHWIQTKDGQCGSPLVSTRDGFIVGIHSASNFTNTNNYFTSVPKNFMELLTNQEAQQWVSGWRLNADSVLWGGHKVFMVKPEEPFQPVKEATQL [E3A]?
A: area with substrate ENLYAQS: 0.0789; area with substrate ENLYDQS: 0.0675; area with substrate ENLYEQS: 0.0496; area with substrate ENLYHQS: 0.0403; area with substrate ENLYIQS: 0.121; area with substrate ENLYKQS: 0.0094; area with substrate ENLYNQS: 0.0782; area with substrate ENLYPQS: 0.0652; area with substrate ENLYRQS: 0.0797; area with substrate ENLYSQS: 0.0852; area with substrate ENLYTQS: 0.0872; area with substrate ENLYVQS: 0.106; area with substrate ENLYYQS: 0.0613

Q: With MGWSLFKGPRDYNPISSSICHLTNESDGHTTSLYGIGFGPFIITNKHLFRRNNGTLVVQSLHGVFKVKDTTTLQQHLVDGRDMIIIRMPKDFPPFPQKLKFREPQREERICLVTTNFQTKSMSSMVSDTSCTFPSGDGIFWKHWIQTKDGQCGSPLVSTRDGFIVGIHSASNFTNTNNYFTSVPKNFMELLTNQEAQQWVSGWRLNADSVLWGGHKVFMVKPEEPFQPVKEATQL [E3W] as the variant, how does the “area with substrate ENLYAQS” value read?
A: The value was 0.09.

Q: What about the “area with substrate ENLYCQS” value of the same variant?
A: Its value is 0.0908.

Q: What about the “area with substrate ENLYEQS” value of the same variant?
A: Its value is 0.0759.

Q: And the “area with substrate ENLYGQS” value?
A: The value was 0.0561.

Q: And the “area with substrate ENLYHQS” value?
A: Its value is 0.0727.

Q: And the “area with substrate ENLYLQS” value?
A: Its value is 0.0929.

Q: What about the “area with substrate ENLYMQS” value of the same variant?
A: Its value is 0.113.

Q: And the “area with substrate ENLYPQS” value?
A: Its value is 0.0684.

Q: What about the “area with substrate ENLYQQS” value of the same variant?
A: Its value is 0.0659.

Q: And the “area with substrate ENLYRQS” value?
A: The value was 0.0669.

Q: What about the “area with substrate ENLYTQS” value of the same variant?
A: Its value is 0.0672.

Q: For MGDSLFKGPRDYNPISSSICHLTNESDGHTTSLYGIGFGPFIITNKHLFRRNNGTLVVQSLHGVFKVKDTTTLQQHLVDGRDMIIIRMPKDFPPFPQKLKFREPQREERICLVTTNFQTKSMSSMVSDTSCTFPSGDGIFWKHWIQTKDGQCGSPLVSTRDGFIVGIHSASNFTNTNNYFTSVPKNFMELLTNQEAQQWVSGWRLNADSVLWGGHKVFMVKPEEPFQPVKEATQL [E3D], which “area with substrate ENLYAQS” value is on record?
A: Its value is 0.0764.

Q: And the “area with substrate ENLYEQS” value?
A: The value was 0.0797.

Q: And the “area with substrate ENLYGQS” value?
A: Its value is 0.0575.

Q: And the “area with substrate ENLYHQS” value?
A: Its value is 0.058.

Q: What about the “area with substrate ENLYIQS” value of the same variant?
A: Its value is 0.155.

Q: What about the “area with substrate ENLYKQS” value of the same variant?
A: Its value is 0.0654.

Q: And the “area with substrate ENLYMQS” value?
A: The value was 0.119.

Q: What about the “area with substrate ENLYPQS” value of the same variant?
A: Its value is 0.0759.

Q: What does the source list for MAESLFKGPRDYNPISSSICHLTNESDGHTTSLYGIGFGPFIITNKHLFRRNNGTLVVQSLHGVFKVKDTTTLQQHLVDGRDMIIIRMPKDFPPFPQKLKFREPQREERICLVTTNFQTKSMSSMVSDTSCTFPSGDGIFWKHWIQTKDGQCGSPLVSTRDGFIVGIHSASNFTNTNNYFTSVPKNFMELLTNQEAQQWVSGWRLNADSVLWGGHKVFMVKPEEPFQPVKEATQL [G2A]?
A: area with substrate ENLYAQS: 0.117; area with substrate ENLYGQS: 0.088; area with substrate ENLYHQS: 0.0859; area with substrate ENLYSQS: 0.0787; area with substrate ENLYWQS: 0.136

Q: Which results are given for MNESLFKGPRDYNPISSSICHLTNESDGHTTSLYGIGFGPFIITNKHLFRRNNGTLVVQSLHGVFKVKDTTTLQQHLVDGRDMIIIRMPKDFPPFPQKLKFREPQREERICLVTTNFQTKSMSSMVSDTSCTFPSGDGIFWKHWIQTKDGQCGSPLVSTRDGFIVGIHSASNFTNTNNYFTSVPKNFMELLTNQEAQQWVSGWRLNADSVLWGGHKVFMVKPEEPFQPVKEATQL [G2N]?
A: area with substrate ENLYAQS: 0.0782; area with substrate ENLYEQS: 0.0346; area with substrate ENLYIQS: 0.159; area with substrate ENLYPQS: 0.103; area with substrate ENLYRQS: 0.0407; area with substrate ENLYWQS: 0.092; area with substrate ENLYYQS: 0.0721

Q: For MGESLFKGPRDYNPISSSICHLTNESDGHTTSLYSIGFGPFIITNKHLFRRNNGTLVVQSLHGVFKVKDTTTLQQHLVDGRDMIIIRMPKDFPPFPQKLKFREPQREERICLVTTNFQTKSMSSMVSDTSCTFPSGDGIFWKHWIQTKDGQCGSPLVSTRDGFIVGIHSASNFTNTNNYFTSVPKNFMELLTNQEAQQWVSGWRLNADSVLWGGHKVFMVKPEEPFQPVKEATQL [G35S], which “area with substrate ENLYAQS” value is on record?
A: The value was 0.055.

Q: What about the “area with substrate ENLYGQS” value of the same variant?
A: The value was 0.0878.

Q: What about the “area with substrate ENLYKQS” value of the same variant?
A: The value was 0.038.

Q: What about the “area with substrate ENLYLQS” value of the same variant?
A: Its value is 0.0661.

Q: And the “area with substrate ENLYMQS” value?
A: The value was 0.0552.

Q: And the “area with substrate ENLYNQS” value?
A: Its value is 0.0459.

Q: What about the “area with substrate ENLYVQS” value of the same variant?
A: Its value is 0.0627.

Q: For MGESLFKGPRDYNPISSSICHLTNESDGHTTSLYTIGFGPFIITNKHLFRRNNGTLVVQSLHGVFKVKDTTTLQQHLVDGRDMIIIRMPKDFPPFPQKLKFREPQREERICLVTTNFQTKSMSSMVSDTSCTFPSGDGIFWKHWIQTKDGQCGSPLVSTRDGFIVGIHSASNFTNTNNYFTSVPKNFMELLTNQEAQQWVSGWRLNADSVLWGGHKVFMVKPEEPFQPVKEATQL [G35T], which “area with substrate ENLYAQS” value is on record?
A: The value was 0.0578.

Q: What about the “area with substrate ENLYEQS” value of the same variant?
A: The value was 0.0466.

Q: What about the “area with substrate ENLYHQS” value of the same variant?
A: Its value is 0.0556.

Q: What about the “area with substrate ENLYIQS” value of the same variant?
A: The value was 0.0415.

Q: What about the “area with substrate ENLYLQS” value of the same variant?
A: The value was 0.0227.

Q: What about the “area with substrate ENLYNQS” value of the same variant?
A: The value was 0.0471.

Q: And the “area with substrate ENLYPQS” value?
A: The value was 0.028.

Q: And the “area with substrate ENLYVQS” value?
A: The value was 0.0297.

Q: What about the “area with substrate ENLYWQS” value of the same variant?
A: The value was 0.03.

Q: What about the “area with substrate ENLYYQS” value of the same variant?
A: Its value is 0.032.

Q: What does the source list for MGEALFKGPRDYNPISSSICHLTNESDGHTTSLYGIGFGPFIITNKHLFRRNNGTLVVQSLHGVFKVKDTTTLQQHLVDGRDMIIIRMPKDFPPFPQKLKFREPQREERICLVTTNFQTKSMSSMVSDTSCTFPSGDGIFWKHWIQTKDGQCGSPLVSTRDGFIVGIHSASNFTNTNNYFTSVPKNFMELLTNQEAQQWVSGWRLNADSVLWGGHKVFMVKPEEPFQPVKEATQL [S4A]?
A: area with substrate ENLYAQS: 0.118; area with substrate ENLYCQS: 0.0781; area with substrate ENLYDQS: 0.0063; area with substrate ENLYGQS: 0.0739; area with substrate ENLYHQS: 0.0624; area with substrate ENLYIQS: 0.124; area with substrate ENLYRQS: 0.0652
